Values joined by “and” are separate entries in the source; they are usually repeats but may differ in a detail not shown here. Equal values may be shown once. The inconclusive results got no clear call from the source; some entries with a clear call stand among them for comparison. For part of these data: Where the call is inconclusive, the potency comes from a doubtful curve fit. Some compounds were tested as several samples or in several runs, with calls that do not always agree. Active and inactive are the calls of the source. Unless noted, calls follow the shape of the dose curve; as a rule, active = well fitted curve in the direction sought with a large enough effect in the repeat runs; inconclusive = weak or mixed curves; inactive = no such curve, though single readings can be large; an effect the other way counts as inactive or inconclusive.
Legend:
[1] = target: Nuclear receptor subfamily 1 group I member 3 (Homo sapiens) (UniProt Q14994); test: qHTS assay to identify small molecule antagonists of the constitutive androstane receptor (CAR) signaling pathway (AID 1224838);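 also: HepG2 cells stably expressing hCAR with CYP2B6 luciferase reporter stimulated by CITCO; potency is read from the fitted curve at half-maximal effect; nearly all actives have a fitted effect of over 40% in size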
Sequence of UniProt Q14994 (Q14994 whole entry, looked up): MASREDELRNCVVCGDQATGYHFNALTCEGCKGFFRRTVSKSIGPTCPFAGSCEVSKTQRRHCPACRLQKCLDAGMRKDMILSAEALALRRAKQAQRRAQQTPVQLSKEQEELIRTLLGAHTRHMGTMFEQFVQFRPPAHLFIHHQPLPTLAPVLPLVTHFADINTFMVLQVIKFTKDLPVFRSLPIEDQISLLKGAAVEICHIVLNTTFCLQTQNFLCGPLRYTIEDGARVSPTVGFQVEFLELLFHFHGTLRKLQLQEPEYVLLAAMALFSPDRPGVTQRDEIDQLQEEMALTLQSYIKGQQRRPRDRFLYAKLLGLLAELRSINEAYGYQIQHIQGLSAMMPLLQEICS
Procedure, shortened: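 Human hepatoma HepG2 cells expressing hCAR and a CYP2B6 promoter (2.2 kb) luciferase construct; compound titration (15 points) with 50 nM CITCO final, 24 h at 37 C/5% CO2; luminescence via ONE-Glo after 30 min at room temperature.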

[2] = qHTS assay to identify small molecule antagonists of the estrogen related receptor signaling pathway with the pleiotropic PPARgamma coactivator (PGC) from Tox21 10K library - cell viability counter screen (AID 1224840; active = well fitted cell-killing curve with a large enough effect in the repeat runs, not every such curve was filed as active; inconclusive = weak or mixed curves, or effect the other way; inactive = no such curve, though single readings can be large or run the other way; also: potency is read from the fitted curve at half-maximal effect; nearly all actives have a fitted effect of over 40% in size)
Procedure, shortened: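 Seeded PGC/ERR cells (2,000/well, 6 h, 37 C/5% CO2) get compound by pin tool; 17.5 h incubation at 37 C; CellTiter-Fluor added, 30 min, fluorescence measured.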

[3] = qHTS assay to identify small molecule agonists of the estrogen related receptor signaling pathway with the pleiotropic PPARgamma coactivator (PGC) from Tox21 10K library (AID 1224842); also: potency is read from the fitted curve at half-maximal effect; nearly all actives have a fitted effect of over 15% in size
Procedure, shortened: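 PGC/ERR reporter cell line, 2,000 cells per well, incubated 6 h at 37 C before 23 nL compound in DMSO was added. After 18 h at 37 C, One-Glo luminescence read following 30 min at room temperature.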

[4] = qHTS assay to identify small molecule agonists of the hypoxia (HIF-1) signaling pathway - cell viability counter screen (AID 1224844; calls by dose curve; also: potency is read from the fitted curve at half-maximal effect; nearly all actives have a fitted effect of over 50% in size)
Procedure, shortened: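 HRE-bla ME-180; 0.5% dFBS; cpd 17 h, 37C, 5% CO2; CellTiter-Glo lum., 30 min RT, post-FRET read, same wells.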

[5] = qHTS assay to identify small molecule agonists of H2AX - cell viability counter screen (AID 1224847; calls by dose curve; also: potency is read from the fitted curve at half-maximal effect; nearly all actives have a fitted effect of over 30% in size)
Procedure, shortened: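 We seed wild-type CHO-K1 cells overnight, treat them for 3 hr at 37C with compounds in 15-concentration series, and quantify remaining viability by CellTiter-Glo luminescence.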

[6] = qHTS assay to identify small molecule antagonists of the estrogen related receptor (ERR) signaling pathway from Tox21 library (AID 1224848); also: nearly all actives have a fitted effect of over 50% in size; also: potency is read from the fitted curve at half-maximal effect
Procedure, shortened: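 Compounds dissolved in DMSO are pin-transferred onto ERR reporter cells (2,000 per well) that have settled for 6 h at 37 C. Plates then incubate 18 h at 37 C before ONE-Glo luciferase reagent and a luminescence read 30 min later.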

[7] = qHTS assay to identify small molecule agonists of the estrogen related receptor (ERR) signaling pathway from Tox21 library (AID 1224849; calls by dose curve; also: % is scaled to controls: 0 for no effect and ±100 for the full control effect; nearly all actives have a fitted effect of over 15% in size); conditions: ERR reporter cell line, ONE-Glo luciferase, 18 h; at 92.4 µM (top of the series)
Procedure, shortened: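 Tox21 compounds tested for ERR agonism in an NTP reporter cell line: 18 h treatment at 37 C, then ONE-Glo luminescence.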

[8] = qHTS RealTime-Glo MT Cell Viability Assay in HEK293 cells - 32 hour (AID 1224868); also: nearly all actives have a fitted effect of over 50% in size; also: potency is read from the fitted curve at half-maximal effect
Procedure, shortened: (§1)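 HEK293 cells seeded with NanoLuc/prosubstrate reagent, rested 5 h at 37 C, then dosed and kept at 37 C up to 40 h. Nonlytic real-time luminescence from viable cells read at 0, 8, 16, 24, 32 and 40 h.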

[9] = qHTS RealTime-Glo MT Cell Viability Assay in HepG2 cells - 40 hour (AID 1224870); also: potency is read from the fitted curve at half-maximal effect; nearly all actives have a fitted effect of over 50% in size
Procedure, shortened: (§2)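 HepG2 cells (600/well) mixed with RealTime-Glo MT reagent, settled 5 h at 37 C/5% CO2 before compound addition. Nonlytic NanoLuc luminescence from viable-cell prosubstrate reduction read repeatedly during 40 h treatment at 37 C.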

[10] = A CellTox Green Cytotoxicity Assay to monitor cytotoxicity in HEK293 cells - 40 hour (AID 1224871); also: potency is read from the fitted curve at half-maximal effect; nearly all actives have a fitted effect of over 45% in size
Procedure, shortened: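 Tox21 screen in HEK293: membrane-impermeant cyanine dye fluoresces on binding dead-cell DNA; compound pinned 5 h post-seeding, plates held at 37 C, signal read repeatedly through 40 h.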

[11] = qHTS RealTime-Glo MT Cell Viability Assay in HEK293 cells - 16 hour (AID 1224872)
Procedure, shortened: as §1

[12] = qHTS RealTime-Glo MT Cell Viability Assay in HepG2 cells - 8 hour (AID 1224873); also: potency is read from the fitted curve at half-maximal effect; nearly all actives have a fitted effect of over 55% in size
Procedure, shortened: as §2

[13] = qHTS RealTime-Glo MT Cell Viability Assay in HEK293 cells - 40 hour (AID 1224874); conditions: RealTime-Glo luminescence; max response: stronger effect = lower value
Procedure, shortened: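 HEK293 + NanoLuc + prosubstrate, 600 cells/well; 5 h, 37 C/5% CO2; compound 23 nL in DMSO by pintool; 37 C; luminescence read at 0, 8, 16, 24, 32 and 40 h time points.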

[14] = qHTS assay to identify small molecule agonists of H2AX (AID 1224845; active = well fitted activation curve with a large enough effect in the signal ratio in the repeat runs, not every such curve was filed as active; inconclusive = weak or mixed curves; the % refers to the signal ratio; also: potency is read from the fitted curve at half-maximal effect); conditions: CHO-K1 phospho-H2AX Ser139 HTRF, 3 h; activation (H2AX phosphorylation): at 154 µM (top of the series)
Procedure, shortened: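 Wild-type CHO-K1 cells, plated overnight, exposed 3hr at 37C to 15 concentrations (0.76% DMSO final). Lysed, then HTRF anti-pH2AX (S139) cryptate and anti-H2AX-d2 antibodies, 24 hr room temperature; 665/620 nm emission read.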

[15] = target: Thyrotropin receptor (Homo sapiens) (UniProt P16473); test: qHTS assay to identify small molecule agonists of the thyroid stimulating hormone receptor (TSHR) signaling pathway (AID 1224843; calls by dose curve; also: nearly all actives have a fitted effect of over 45% in size; also: potency is read from the fitted curve at half-maximal effect; as to activation: % is scaled to controls: 0 for no effect and ±100 for the full control effect); conditions: TSHR-HEK293 cells, cAMP HTRF, agonist mode, 30 min; activation: at 92.4 µM (top of the series) unless noted
Sequence of UniProt P16473 (P16473 whole entry, looked up): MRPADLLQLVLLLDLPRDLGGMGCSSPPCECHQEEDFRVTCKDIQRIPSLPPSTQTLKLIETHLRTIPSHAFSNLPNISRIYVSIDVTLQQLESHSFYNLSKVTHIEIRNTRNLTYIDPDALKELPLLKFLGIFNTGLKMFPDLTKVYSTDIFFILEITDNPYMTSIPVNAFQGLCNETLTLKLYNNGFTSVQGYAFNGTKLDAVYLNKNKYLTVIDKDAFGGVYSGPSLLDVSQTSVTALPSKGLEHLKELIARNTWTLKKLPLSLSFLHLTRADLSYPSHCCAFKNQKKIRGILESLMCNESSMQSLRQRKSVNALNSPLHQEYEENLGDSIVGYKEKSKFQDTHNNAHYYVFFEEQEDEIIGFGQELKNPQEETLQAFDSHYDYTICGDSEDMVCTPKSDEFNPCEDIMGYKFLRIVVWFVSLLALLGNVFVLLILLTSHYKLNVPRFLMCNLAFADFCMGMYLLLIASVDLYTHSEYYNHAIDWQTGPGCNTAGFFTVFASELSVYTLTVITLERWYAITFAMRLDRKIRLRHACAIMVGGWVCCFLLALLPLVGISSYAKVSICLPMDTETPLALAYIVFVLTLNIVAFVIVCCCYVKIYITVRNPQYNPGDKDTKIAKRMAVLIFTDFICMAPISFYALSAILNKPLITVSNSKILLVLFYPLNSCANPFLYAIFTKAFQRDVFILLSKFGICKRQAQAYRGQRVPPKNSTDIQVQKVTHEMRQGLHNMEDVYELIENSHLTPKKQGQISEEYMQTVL
Procedure, shortened: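 HEK293/TSHR, 800 cells/well; cpd 30 min RT; add cAMP-d2 + anti-cAMP-cryptate, 1 h RT; fluorescence read on plate reader. 15-pt titration, n=3.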
Tags tell the direction and shape of the fitted curve or compound fluorescence and quenching.

| SMILES | Potency [1] | Potency [2] | Potency [3] | Potency [4] | Potency [5] | Potency [6] | activity change, positive = activation [7] | Potency [8] | Potency [9] | Potency [10] | Potency [11] | Potency [12] | Potency [13] | Potency [14] | Potency [15] | activation [15] |
| --- | --- | --- | --- | --- | --- | --- | --- | --- | --- | --- | --- | --- | --- | --- | --- | --- |
| O=[N+]([O-])C(Br)(CO)CO | inconclusive: 61.1 µM [inhibitor, single point] | inconclusive: 77 µM [cytotoxic, single point] | inconclusive: 68.6 µM [activator] | inconclusive: 43.6 µM [cytotoxic, partial curve] | inconclusive: 127 µM [cytotoxic, single point] | inactive | inconclusive: 17.8% | inconclusive: 54.9 µM [cytotoxic, single point] | inconclusive: 54.9 µM [falling, single point] | inconclusive: 61.6 µM [activator, single point] | inconclusive: 61.6 µM [cytotoxic, single point] | inconclusive: 54.9 µM [falling, single point] | inconclusive: 54.9 µM [cytotoxic, single point] |  |  |  |
| O=C1C2CC=CCC2C(=O)N1SC(Cl)(Cl)Cl (stereo unspecified) | active: 13.5 µM | active: 30.1 µM |  | inconclusive: 43.5 µM [cytotoxic, partial curve] | inconclusive: 89.4 µM [cytotoxic, partial curve] and inconclusive: 125 µM [cytotoxic, single point] |  |  |  |  | inconclusive: 54.7 µM [activator, single point] and active: 6.81 µM | inconclusive: 38.7 µM [cytotoxic, partial curve] |  |  | inconclusive: 113 µM [activator, partial curve, poor fit] and inconclusive: 5.57 µM [activator] |  |  |
| NNC(N)=S | inconclusive: 77 µM [inhibitor, single point] | inconclusive: 71.2 µM [cytotoxic, single point] |  | inconclusive: 0.0064 µM [cytotoxic, full curve] |  | active: 16 µM and active: 61.1 µM |  | inactive |  |  |  |  |  | active: 105 µM |  |  |
| CCCCCCCCCCCCCCCC[N+](C)(C)C | inconclusive: 68.6 µM [inhibitor, single point] |  |  | inconclusive: 26.6 µM and inconclusive: 61.6 µM [cytotoxic, single point] | active: 54.6 µM and active: 101 µM and active: 49.2 µM |  |  | active: 9.42 µM and active: 21.9 µM and active: 8.49 µM | inconclusive: 26.6 µM [falling, single point] |  | active: 10.6 µM and active: 21.9 µM and inconclusive: 9.52 µM [cytotoxic, partial curve] | inconclusive: 21.3 µM [falling, partial curve] | active: 8.4 µM and active: 21.9 µM and active: 9.52 µM |  | inconclusive: 29.5 µM [activator] and inconclusive: 23.7 µM [activator, partial curve] | inconclusive: 38.8% |

Reference: PubChem BioAssay (Tox21)
